This is one part of the list. The main result of the screen is listed elsewhere. These columns were measured beside it and carry no call.
assay: compounds boosting herpes simplex virus growth – fold increase, host cell viability (AID 1956); settings: HSV replication augmentation in cells; fold increase: measured here: primary screen fold increase 10 uM, at 10 µM, stronger effect = higher value; viability: measured here: host cell viability series, at 25 µM, stronger effect = lower value; note: tested in PC3 cells

| SMILES | fold increase | viability [%] |
| --- | --- | --- |
| Cc1nnc(SCCN2C(=O)c3ccccc3C2=O)nc1C | 1.32 | – |
| N#Cc1cc2c(nc1SCC(=O)Nc1sc3c(c1C#N)CCC3)CCCC2 | 1.24 | 97.7 |
| COc1ccc(-c2nc(CSCC(=O)N3CCN(C4CCCCC4)CC3)c(C)o2)cc1OC | 1.37 | 87 |
| CCn1c(SCC(=O)N2CCc3ccccc3C2)nc2sc(C)c(C)c2c1=O | 2.06 | 94.3 |
| Cc1ccc(O)c(C(=O)c2cc(C#N)c3nc4ccccc4n3c2)c1 | 4.58 | 86.2 |
| CCCSc1nc2sc3c(c2c(=O)[nH]1)CCN(Cc1ccccc1)C3 | 1.39 | – |
| CC(C)Sc1nnc(Cn2c(=O)sc3ccccc32)n1-c1ccccc1 | 1.32 | 98.1 |
| COc1cc(/C=C/C(=O)c2c(O)cc(C)oc2=O)cc(OC)c1O | 1.32 | 96.4 |
| COc1cc(/C=C(\C#N)c2nc3ccccc3[nH]2)ccc1OC(=O)c1ccco1 | 6.91 | 76.6 |
| COc1ccc(CN2C(=O)/C(=C/c3ccc(-c4ccc(Cl)c(C(=O)O)c4)o3)SC2=S)cc1 | 2.82 | – |
| Cc1cc(NS(=O)(=O)c2ccc(NC(=O)CSc3nc4ncc(Cl)cc4[nH]3)cc2)nc(C)n1 | 1.39 | 101 |
| CCc1ccc(CNc2ccc(N3CCN(C(C)=O)CC3)cc2)cc1 | 1.18 | – |
| Cc1ccc(S(=O)(=O)NC2=NCN(CCOC(=O)c3ccccc3)CN2)cc1 | 1.34 | 96.1 |
| CC(=O)C1=NN(c2ccccc2)C(c2cccs2)N1c1ccccc1 (stereo unspecified) | 1.33 | 84.4 |
| COc1cc(N2CCCC2)c(OC)cc1/C=C(/C#N)c1cccc(F)c1 | 1.98 | – |
| COc1ccc(C2=CC(c3ccc(Cl)cc3)n3cnnc3N2)cc1OC (stereo unspecified) | 1.19 | 93.7 |
| CCn1c(C)cc(/C=C2/SC(=S)NC2=O)c1C | 1.74 | 96.6 |
| Cc1ccc(Sc2ncccc2NC(=O)c2ccccc2Cl)cc1 | 1.39 | 98.3 |
| O=[N+]([O-])c1cccc(-c2ccc(/C=N/NC(=S)Nc3ccccc3)o2)c1 | 1.56 | – |
| O=c1c2ccccc2c(/C=N/NS(=O)(=O)c2ccccc2)c(O)n1-c1ccccn1 | 1.76 | 90.8 |
| N#Cc1cc(Sc2ccccn2)c([N+](=O)[O-])cc1C#N | 3.25 | 94.2 |
| COc1ccc(OCC(=O)NNC(=O)Cc2coc3cc(OC)ccc23)cc1 | 1.37 | 97.5 |
| COc1ccc(Cn2c(O)c(/C=N/NC(=O)c3cccnc3)c3ccccc3c2=O)cc1 | 1.95 | 87.7 |

| SMILES | fold increase | viability [%] |
| --- | --- | --- |
| CCS(=O)(=O)Nc1cc(C(=O)OC)ccc1C(=O)OC | 1.4 | 97.9 |
| CC1=CC(C)(C)Nc2ccc(OC(=O)CN3C(=O)c4ccccc4C3=O)cc21 | 1.78 | – |
| CCN1/C(=C/c2cc[n+](CCCS(=O)(=O)[O-])c3ccccc23)Sc2ccccc21 | 1.75 | 86.4 |
| Cc1ccc(NC(=O)N(Cc2ccc3c(c2)OCO3)Cc2cc3cc4c(cc3[nH]c2=O)OCCO4)cc1 | 1.13 | – |
| CCn1c(C)cc(/C=C2/SC(=S)N(CC(=O)O)C2=O)c1C | 1.82 | – |
| COc1cccc(CSc2nnc(CSc3nc4nc(C)cc(C)n4n3)s2)c1 | 1.35 | 94 |
| C/C(=N/NC(=O)c1cccs1)c1c(C)[nH]n(-c2nc3ccccc3s2)c1=O | 1.34 | – |
| COc1ccc(C(=O)c2sc3nc(C)cc(-c4cccs4)c3c2N)cc1 | 1.69 | 83.4 |
| CCOC(=O)C1=C(Cc2ccc(Cl)cc2)C(=O)c2ccccc2C1=O | 3.18 | 70.2 |
| CC(C)CN(C(=O)CN1CCc2ccccc21)c1c(N)n(CC(C)C)c(=O)[nH]c1=O | 1.51 | 89.9 |
| O=c1[nH]c(Cc2ccccn2)nc2scc(-c3ccccc3Cl)c12 | 2.18 | 78.4 |
| Cc1ccc(S(=O)(=O)NCCCC(=O)O)cc1 | 1.61 | 96.2 |
| Nc1ccccc1Nc1cc(-c2ccccc2)nn1-c1ccccc1 | 1.72 | 103 |
| O=[N+]([O-])c1ccccc1-c1ccc(C(=S)N2CCCCC2)o1 | 1.42 | 97.7 |
| CC(=O)Nc1ccc(S(=O)(=O)Nc2nc3ccccc3nc2Nc2ccc(N)cc2)cc1 | 2.46 | 96.9 |
| CC1CCCN(C(=O)COC(=O)c2ccc[nH]c2=O)C1 (stereo unspecified) | 1.34 | 97.6 |
| COc1cccc(=O)c2c(C)n(-c3ccc(C(=O)O)cc3)c(C)c12 | 1.4 | 93.9 |
| Cc1ccc(S(=O)(=O)Nc2cc(C(C(=O)OC(C)C)C(=O)C(F)(F)F)c(O)c3ccccc23)c(C)c1 (stereo unspecified) | 1.66 | – |
| O=C(O)c1ccc(-c2ccc(/C=N/Nc3ccc([N+](=O)[O-])cc3)o2)cc1 | 2.78 | 98.9 |
| CC(C)(C)c1ccc(-c2nnc3sc(-c4ccccn4)nn23)cc1 | 1.46 | 87.2 |
| CC(C)c1cc(=O)oc2c3c4c(cc12)CCCN4CCC3 | 1.53 | 89 |
| O=C(O)/C(=C/c1ccco1)c1ccccc1 | 1.89 | 99.4 |
| CCn1cc(NC(=O)Nc2ccccc2C(=O)OC)c(C(N)=O)n1 | 1.43 | 102 |

| SMILES | fold increase | viability [%] |
| --- | --- | --- |
| CC(C)NC(=O)NC(=O)COC(=O)c1ncc(Cl)c(Cl)c1Cl | 1.39 | 95.8 |
| O=C(NCCCN1CCOCC1)c1ccccc1NS(=O)(=O)c1cc([N+](=O)[O-])ccc1Cl | 1.34 | – |
| Cc1c(Cc2ccccc2)sc(/N=C/c2c(O)ccc3ccccc23)c1C(N)=O | 1.32 | – |
| CCOC(=O)N1CCC(Nc2c(Nc3ccc(F)cc3)c(=O)c2=O)CC1 | 1.32 | – |
| Cc1cc(OCC(=O)Nc2cc(-c3nn4c(C)nnc4s3)ccc2C)ccc1Cl | 1.36 | 103 |
| COc1cc(/C=C2\SC(=S)N(N(C)c3ccccc3)C2=O)ccc1O | 7.06 | 90.5 |
| CCOC(=O)/C(=C/C1=CC(=C/N(C)C)/C(=O)O1)C(C)=O | 1.94 | 98.6 |
| C=CCNC(=O)c1sc(=S)n(-c2ccc(C(=O)OCC)cc2)c1N | 1.33 | 87.2 |
| COc1cc(NC(=S)NC(=O)c2ccc(C)cc2C)ccc1NC(=O)c1cccs1 | 1.16 | – |
| CCN1/C(=C/c2ccc3cc(C)ccc3[n+]2CC)Sc2cc(C)ccc21 | 8.24 | 12.9 |
| COCCn1c(C)cc2c(c1=O)C(c1ccco1)C(C#N)=C(N)O2 (stereo unspecified) | 1.81 | 99.4 |
| COc1cc(OC)cc(C(=O)NCc2n[nH]c(=S)n2-c2ccccc2)c1 | 1.36 | 94.1 |
| Cc1ccc(S(=O)(=O)NC(=O)Nc2ncc3c(n2)CC(c2ccco2)CC3=O)cc1 (stereo unspecified) | 1.37 | 95.5 |
| Cn1cccc1/C=N/NC(=O)CSc1nc2ccccc2[nH]1 | 1.38 | 99.9 |
| CCC1=Nc2ccccc2NC2=C1C(=O)CCC2 | 1.4 | 95.7 |
| NNC(=O)c1oc2nc(-c3ccco3)cc(-c3ccco3)c2c1N | 1.36 | 97.6 |
| CC(=O)NCCC(=O)Nc1nc(-c2cccs2)c(-c2cccs2)s1 | 1.37 | 97.3 |
| CSC1=NSC2=NC(=O)/C(=C/c3coc4ccc(O)cc4c3=O)C(=N)N12 | 1.5 | 102 |
| COc1ccc(/C=C2\CCCc3c2nc2ccccc2c3C(=O)O)cc1OC | 7.99 | 98.1 |
| CCCC(C(=O)O)N1C(=O)/C(=C/c2cccn2C)SC1=S (stereo unspecified) | 1.65 | 105 |
| N#C/C(=C\c1ccc(OC(=O)c2ccc(Br)s2)cc1)c1nc2ccccc2[nH]1 | 1.34 | – |
| CCCCNc1ccc(C(=O)Nc2cccc(C)n2)cc1[N+](=O)[O-] | 1.4 | 97.4 |
| Cc1occc1C(=O)Nc1c(F)c(F)c(F)c(F)c1F | 1.32 | 96.2 |

| SMILES | fold increase | viability [%] |
| --- | --- | --- |
| COc1cc(C2N(c3ccc(Cl)cc3)C(=O)C3CCCN32)cc(OC)c1OC (stereo unspecified) | 1.41 | 101 |
| COc1ccc(S(=O)(=O)N/N=C\c2ccc(OC)c(COc3ccc(C)cc3[N+](=O)[O-])c2)cc1 | 1.07 | – |
| N#CC1=C(N)Oc2ccc3ccc(O)cc3c2C1c1ccsc1 (stereo unspecified) | 5.07 | 91.7 |
| COC(=O)CSc1nc2ccc(C)cc2cc1C#N | 1.39 | 96 |
| COc1ccc(N=Nc2nc3cc(Br)c(Br)cc3n2C)c(OC)c1 | 2.53 | 56.5 |
| O=C1/C(=C\c2ccc(O)cc2)SC(=S)N1c1cccnc1 | 3.82 | 93 |
| CCc1ccc(NC(=O)CS(=O)CC(=O)NC(C)CCc2ccco2)cc1 (stereo unspecified) | 1.07 | – |
| N#CCCN1CCN(S(=O)(=O)c2ccc(S(=O)(=O)NC3CC3)cc2)CC1 | 1.38 | 99.3 |
| CC1=C(C(=O)Nc2ccccc2Cl)C(c2ccc(N(C)C)cc2)NC(=O)N1 (stereo unspecified) | 1.33 | 94.4 |
| N#Cc1ccc(-c2ccc(F)cc2)nc1SCC(=O)Nc1sc2c(c1C#N)CCC2 | 1.82 | 69 |
| CCOC(=O)N1CC=C2C(C#N)=C(N)C(C#N)(C#N)[C@H](c3ccccc3OCC)[C@H]2C1 | 1.34 | 96.1 |
| Cc1ccccc1OCC(=O)OCC(=O)Nc1cc(C(F)(F)F)ccc1N1CCOCC1 | 1.33 | 98.8 |
| O=C(OCCN1C(=O)c2cccc3c(N4CCOCC4)ccc(c23)C1=O)c1ccc(Cl)cc1Cl | 8.33 | 50.1 |
| COc1cc(N2CCCC2)c(OC)cc1/C=C(/C#N)c1cccc(Br)c1 | 1.35 | 91 |
| COC(=O)c1ccc(N2Cc3ccccc3/C2=N\C(=O)Nc2ccccc2)cc1 | 1.39 | 94.4 |
| Cn1cc(/C=C2\SC(=S)N(NC(=O)c3ccccc3)C2=O)c2ccccc21 | 1.43 | 92.1 |
| CC(C)Oc1ccc(N2CC(C(=O)Nc3ccc4c(c3)OCO4)CC2=O)cc1 (stereo unspecified) | 1.42 | 99.7 |
| CCN(Cc1ccccc1)c1ccc(/C=C(\C#N)c2ccccn2)cc1 | 2.13 | 83.7 |
| CCN(CC)S(=O)(=O)c1ccc(C(=O)OCCN2C(=O)c3cccc4c(N5CCOCC5)ccc(c34)C2=O)cc1 | 1.64 | 89.7 |
| COc1ccc(C(=O)OC(C)C(=O)Nc2cc(C(F)(F)F)ccc2Cl)c(OC)c1OC (stereo unspecified) | 1.34 | 83.7 |
| CC(C)OC(=O)CN1C(=O)S/C(=C/c2ccc(N3CCCCC3)o2)C1=O | 1.34 | 90.5 |
| CN(C)c1ccc(/C=C(\C#N)c2ccccn2)cc1 | 1.41 | 62.5 |
| Cc1cc(-c2nnc(CCC(=O)N3CCN(Cc4cccnc4)CC3)o2)c(C)o1 | 1.62 | 96.4 |

From PubChem BioAssay AID1956 (SRMLSC, 2009)
